Structures are written as SMILES. In all, about 45,000 compounds went through this assay and about 200 (0.44%) were called active. Another 7% or so got no clear call; they are omitted. Calls follow the shape of the dose curve; as a rule, active = well fitted activation curve with a large enough effect; inconclusive = small, poorly fitted or top-dose-only effect; inactive = no such curve, though single readings can be large or run the other way. The list shows a part of the results.
Potency is read from the fitted curve at half-maximal effect.

A short description of the experiment: qHTS of TDP-43 Inhibitors: NCGC Sytravon Library Screen. Also: nearly all actives have a fitted effect of over 55% in size. As to growth rescue (activation): 0% is about no effect. The following applies: yeast TDP-43 toxicity rescue, BacTiter-Glo growth, 24 h; series mostly up to 46.1 µM; growth rescue (activation): at the top concentration. The gist of the method:
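TDP-43-expressing yeast, pregrown in raffinose, seeded at OD600 0.02 in galactose medium with compound for 24 hr at 30 deg C. Growth read by BacTiter-Glo luminescence, so rescue of toxicity appears as activation.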
For `CC(C)C(=O)N1CCN(c2ccccc2NC(=O)c2cccc3ccccc23)CC1`, the “growth rescue (activation)” value was inactive: 20.7%. On the same count and under the same terms, then `C/C=C(\C)CN1CCC(n2nccc2NC(=O)CCCc2ccccc2)CC1`, with inactive: 17.8%. For the molecule `COc1ccc(-c2ccc(C(=O)NC(C)C)c3occc23)c(C)c1`, the Potency is active: 15.8 µM. On to `COc1ccccc1-c1coc2c(CN3CCC(C)CC3)c(O)ccc2c1=O`, for which the “growth rescue (activation)” value is inactive: 5.62%. Still for that read-out and setting: then `O=C(N/N=C/c1cccnc1)c1cc(-c2cccs2)nc2ccccc12`, with inactive: 10.3%; and `FC(F)(F)Oc1ccc(Nc2nc3ccccc3o2)cc1`, with inactive: 14.3%. The same measure, in the same setting: then `O=C(CSCc1ccc(F)cc1)NCc1ccc2c(c1)OCO2`, with inactive: 23.4%. On the same count and under the same terms, next, `COc1cc(C(=O)OCC(=O)NC(=O)c2cccn2C)ccc1OC(F)F`: inactive: 10.1%; `NC1=NC(=O)/C(=C\c2ccco2)S1`: inactive: 27.1%. On to `COc1ccc(C(=O)Cn2cnc3ccc(Cl)cc3c2=O)cc1F`, for which the “growth rescue (activation)” value is inactive: -14%. Consider `COc1ccccc1NC(=O)COC(=O)c1ccccn1`, for which the “growth rescue (activation)” value is inactive: 10.4%.

For the molecule `CC(=O)Nc1cccc(C(=O)NNC(=O)c2n[nH]c(=O)c3ccccc23)c1`, the “growth rescue (activation)” value is inactive: 8.83%.

On to `CC(=O)Cn1ncc(Br)c(Br)c1=O`, for which the “growth rescue (activation)” value is inactive: 12.3%. On the same count and under the same terms, next, `O=C(CC1C(=O)NCCN1Cc1cccc(C(F)(F)F)c1)NC1CCOCC1` (stereo not given): inactive: 18.4%; `CN1/C(=C\C(=O)c2cccc([N+](=O)[O-])c2)Sc2ccccc21`: inactive: 16.1%.

Turning to `CCCn1c(SCC(=O)N2CCN(C(=O)c3ccco3)CC2)nc2ccccc2c1=O`, the “growth rescue (activation)” value was inactive: -14%. Same read-out and setting: then `Cc1cc(Br)ccc1SCC(=O)OCC(=O)Nc1ccccc1C#N`, with inactive: 17.5%; and `CCOc1ccc(C(=O)/C=C/Nc2ccc(S(=O)(=O)N=C(N)N)cc2)cc1`, with inactive: -27.4%; and `CC1(C(=O)NS(=O)(=O)c2cccc(C#N)c2)CCN1C(=O)c1ccco1` (stereo not given), with inactive: -5.84%.

`Nc1c(Cl)ncnc1N/N=C/c1ccnc2ccccc12`: the “growth rescue (activation)” value was inactive: 11.1%. Still for that read-out and setting: then `COc1ccccc1CCC(=O)N1CCC(n2nccc2NC(=O)C2CCOC2)CC1` (stereo not given), with inactive: -12.2%; and `Cc1cc(NS(=O)(=O)c2ccc(NC(=O)COc3ccc(C#N)cc3)cc2)nc(C)n1`, with inactive: 8.47%; and `CC(=O)c1ccc(OCc2cc(C(=O)N(C)Cc3ncc(C)[nH]3)no2)cc1`, with inactive: 27.4%.

As for `Cc1nc([N+](=O)[O-])cn1CC(=O)c1ccccc1`, the “growth rescue (activation)” value was inactive: -9.35%. As to `CCC(CC)C(=O)N(C)c1c(C)nc2c(OCc3ccc(C#N)cc3)cccn12`, the “growth rescue (activation)” value is inactive: 15%.

For the molecule `COc1ccc(CNC(=O)CSc2nnc3c(n2)[nH]c2ccc(F)cc23)cc1`, the “growth rescue (activation)” value is inactive: 4.98%. Same read-out and setting: then `O=C(COC(=O)C1CC2C=CC1C2)Nc1cccc(S(=O)(=O)N2CCOCC2)c1` (stereo not given), with inactive: -1.84%. Same read-out and setting: then `CN(C)c1ccc(C=C2C(=O)OC(C)(C(C)(C)C)OC2=O)cc1` (stereo not given), with inactive: -10.9%; and `CCOC(=O)C1(C)CCN1C(=O)c1ccccc1C(F)(F)F` (stereo not given), with inactive: 1.48%; and `CCCCNC(=O)CSc1nc2ccc(NC(=O)CSc3nnc(N)s3)cc2s1`, with inactive: 5.07%. Same read-out and setting: next, `COc1cc(/C=C/c2ccc3cccc(O)c3n2)cc(OC)c1OC`: inactive: 25.3%. Take `CC1(C(=O)NS(=O)(=O)c2ccc(C#N)cc2)CCN1C(=O)C1(c2ccc(Cl)cc2)CCC1` (stereo not given): the “growth rescue (activation)” value was inactive: 6.69%. Same read-out and setting: then `CCCCOC(=O)N1CCOCCOCCOCC1`, with inactive: -11%. Still for that read-out and setting: then `O=C1CCC(=O)N1c1ccc(-c2nc3ccccc3s2)cc1`, with inactive: -3.99%; and `O=[N+]([O-])c1ccc2nc(NCCCO)nc(-c3ccccc3)c2c1`, with inactive: 17.4%. The same measure, in the same setting: then `COc1c(/C=N/NC(N)=S)c(C)nn1-c1ccccc1`, with inactive: 2.19%. In the case of `CCOC(=O)C1(C)CCN1C(=O)c1ccc2ccccc2c1` (stereo not given), the “growth rescue (activation)” value was inactive: 19.7%.

As to `COc1ccc(-n2c(C)c(C)c3c(N)ncnc32)cc1`, the “growth rescue (activation)” value is inactive: 0.663%. `Cc1cccc(N(CC(=O)NC2CCCC2)C(=O)c2nsc(Cl)c2Cl)c1C`: the “growth rescue (activation)” value was inactive: 3.1%. On to `Nc1ccc2nc(-c3cccc(-c4nc5ccc(N)cc5[nH]4)c3)[nH]c2c1`, for which the “growth rescue (activation)” value was inactive: 26.9%.

Take `CN1Cc2ccccc2CC1CNCc1c(C(=O)N2CCCC2)nc2ccccn12` (stereo not given): the “growth rescue (activation)” value is inactive: -1.28%. Same read-out and setting: then `CCCCn1c(NCc2ccncc2)nc2ccccc21`, with inactive: -10.3%. The same measure, in the same setting: next, `Cc1cccc(NC(=O)C(=O)C2C(=O)Nc3ccccc32)c1` (stereo not given): inactive: -49%; `CCc1c(C)sc(NC(=S)N2CCN(CC)CC2)c1C(=O)OC`: inactive: 9.96%. Still for that read-out and setting: next, `O=C(NC1CCCCCC1)C(=O)NC1CC1`: inactive: -1.49%. Take `COc1ccc(-c2nn(-c3ccccc3)cc2/C=N/n2cnnc2)cc1OC`: the “growth rescue (activation)” value is inactive: 21%. Same read-out and setting: next, `O=C(Cn1c(=O)oc2cc(S(=O)(=O)N3CCCC3)ccc21)Nc1ccccc1Br`: inactive: -9.27%.

On to `CS(=O)(=O)c1ccc2c(c1)sc1nc(=O)c(/C=C3/C=CC(=O)C(O)=C3)c(N)n12`, for which the “growth rescue (activation)” value was inactive: -2.72%. Still for that read-out and setting: then `C/C(=N\Nc1ccc([N+](=O)[O-])cc1)c1ccc(-n2nncc2C)cc1`, with inactive: 27%; and `CC(C)OCc1c(C(=O)OC/C(O)=C(\C#N)c2nc3ccccc3[nH]2)oc2ccccc12`, with inactive: -15.3%. Take `O=[N+]([O-])c1ccccc1CNc1ccc(F)c(Cl)c1`: the Potency was active: 15.8 µM. Regarding `COc1ccc(CNc2nc3ccccc3n2C)c(O)c1`, the “growth rescue (activation)” value was inactive: 1.77%. Still for that read-out and setting: next, `O=C(COC(=O)CNC(=O)c1ccccc1F)Nc1ccc(Cl)cn1`: inactive: 19.9%; `CCSC1=N/C(=C\C=C2/Oc3ccccc3N2CC)C(=O)S1`: inactive: -16.5%; `O=C(CSc1cccc2cccc(Cl)c12)NCc1cccs1`: inactive: 0.528%.

These data come from PubChem BioAssay AID1347073 (National Center for Advancing Translational Sciences (NCATS), 2019).
